The values that follow come from PMC4336329 (PLoS ONE, 2015).

Out of some 310,000 compounds screened, about 14,000 (4.5%) showed an effect of 50% or more. The effect is printed as a negative number. This is one part of the list.
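Note: peak tail current of the secondary pulse compared with the same well before compound.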

The target in the experiment is human ether-à-go-go-related gene (hERG) potassium channel (human, UniProt Q12809). Briefly: primary screen, population patch clamp on CHO cells stably expressing hERG.
Sequence of human ether-à-go-go-related gene (hERG) potassium channel (Q12809 whole entry, looked up): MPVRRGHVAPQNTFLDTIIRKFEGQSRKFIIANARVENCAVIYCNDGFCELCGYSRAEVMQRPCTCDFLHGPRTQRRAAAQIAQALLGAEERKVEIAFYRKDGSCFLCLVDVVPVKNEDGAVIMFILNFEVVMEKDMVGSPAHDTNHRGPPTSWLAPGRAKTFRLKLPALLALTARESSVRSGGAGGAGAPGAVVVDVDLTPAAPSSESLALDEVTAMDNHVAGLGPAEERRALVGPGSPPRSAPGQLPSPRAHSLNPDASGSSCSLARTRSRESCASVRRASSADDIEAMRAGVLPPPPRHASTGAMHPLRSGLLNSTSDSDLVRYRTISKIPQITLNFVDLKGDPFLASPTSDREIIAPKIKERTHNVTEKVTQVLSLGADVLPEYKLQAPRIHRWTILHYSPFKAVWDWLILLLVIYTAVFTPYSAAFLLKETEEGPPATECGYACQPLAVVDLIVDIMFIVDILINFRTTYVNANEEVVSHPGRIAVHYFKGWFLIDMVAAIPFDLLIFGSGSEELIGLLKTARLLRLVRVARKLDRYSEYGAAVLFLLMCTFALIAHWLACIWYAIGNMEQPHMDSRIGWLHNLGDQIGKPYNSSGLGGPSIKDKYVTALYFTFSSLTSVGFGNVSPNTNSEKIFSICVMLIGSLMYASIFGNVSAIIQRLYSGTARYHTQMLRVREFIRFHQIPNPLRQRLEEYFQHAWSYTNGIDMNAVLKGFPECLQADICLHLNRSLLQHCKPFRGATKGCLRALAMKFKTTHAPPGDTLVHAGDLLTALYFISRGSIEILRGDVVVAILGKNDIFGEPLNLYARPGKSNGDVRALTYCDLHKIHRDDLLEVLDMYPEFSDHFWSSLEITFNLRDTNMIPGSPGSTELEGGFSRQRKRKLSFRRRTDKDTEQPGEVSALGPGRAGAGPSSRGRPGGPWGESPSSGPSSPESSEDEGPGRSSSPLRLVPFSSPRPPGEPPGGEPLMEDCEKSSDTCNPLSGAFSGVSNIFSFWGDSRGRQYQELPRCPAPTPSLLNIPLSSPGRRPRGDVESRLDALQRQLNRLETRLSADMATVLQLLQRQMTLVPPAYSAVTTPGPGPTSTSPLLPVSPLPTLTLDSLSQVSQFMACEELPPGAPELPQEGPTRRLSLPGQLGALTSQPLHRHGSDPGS
For the compound `CCOC(=O)c1cc(OC(=O)c2cccnc2)n(-c2ccccc2)n1`, the “hERG current change (%, negative = inhibition) at 10uM” value was -10.9%. To `Cc1ccc(S(=O)(=O)N(C)C)cc1NC(=O)[C@H](Cc1ccccc1)N1C(=O)c2ccccc2C1=O` belongs 1.36%; to `Cc1ccc(NC(=O)c2ccc3c(=O)n4c(nc3c2)CCC4)cc1F`, -9.1%; to `COCCn1nnnc1C(c1cccc(C(F)(F)F)c1)N1CCN(Cc2ccccc2)CC1.Cl` (centres unmarked), -15.8%.

As to `CCOc1ccc(NC(=O)CCC(=O)c2ccc(Br)cc2)cc1`, the “hERG current change (%, negative = inhibition) at 10uM” value was determined as 15%.

Turning to `O=C1CC(c2ccco2)CC(O)=C1C=NCCO` (centres unmarked), the “hERG current change (%, negative = inhibition) at 10uM” value was determined as 7.61%. Turning to `Cc1cccc(-c2nc(Nc3ccc(N4CCOCC4)cc3)c3ccccc3n2)c1`, the “hERG current change (%, negative = inhibition) at 10uM” value is given as 1.55%. In the case of `COc1ccc2[nH]cc(CCNS(=O)(=O)c3ccccc3)c2c1`, the “hERG current change (%, negative = inhibition) at 10uM” value came to 11.7%. `CCOC(=O)C1C(=O)CC(C)(O)C(C(=O)OCC)C1c1ccccc1OC` (centres unmarked): the “hERG current change (%, negative = inhibition) at 10uM” value turned out to be 2.84%. The same measure for `CCN1CCCC1CNC(=O)C1c2cc(OC)c(OC)cc2C(=O)N(C)C1c1cccnc1` (centres unmarked): 2.02%. The same measure for `CSCCC(N=Cc1c(O)n(-c2ccc(F)cc2)c(=O)[nH]c1=O)C(=O)OC(C)(C)C` (centres unmarked): -8.26%; for `Cc1ccc(CNS(=O)(=O)c2c(C)n(C)c(=O)n(C)c2=O)cc1`: 3.08%. The same measure for `CCCN1CCC(NC2CCC(O)CC2)CC1` (centres unmarked): 2.14%; for `Cc1cccc(C)c1NC(=O)CN(C)CC(=O)Nc1ccccc1Oc1ccccc1`: 11.3%; for `CCc1nnc(NS(=O)(=O)c2ccccc2)s1`: 14.9%. As for `COc1ccccc1N1CCN(CC(=O)c2c(C)[nH]c3ccccc23)CC1`, the “hERG current change (%, negative = inhibition) at 10uM” value is recorded as -38.6%. Turning to `Cc1ccc(S(=O)(=O)N(C)C)cc1NC(=O)Nc1c(-c2ccccc2)noc1C`, the “hERG current change (%, negative = inhibition) at 10uM” value came out at 6.72%.

As for `COc1cccc(CNC(=O)CCNC(=O)c2ccco2)c1`, the “hERG current change (%, negative = inhibition) at 10uM” value was 5.96%.

Turning to `CCn1c(C2CCN(Cc3ccccc3)CC2)n[nH]c1=S`, the “hERG current change (%, negative = inhibition) at 10uM” value is listed as -17.3%. Take `Cc1cc(NC2CCCC2)n2ncc(-c3ccccc3)c2n1`: the “hERG current change (%, negative = inhibition) at 10uM” value came to 2.74%. For `COc1cccc2c(O)c(-c3ccccc3)c(=O)[nH]c12`, the “hERG current change (%, negative = inhibition) at 10uM” value was found to be 16.9%. The same measure for `Cc1c(C#N)c2ncn(CCCN(C)C)c(=O)c2n1-c1ccccc1`: -6.21%; for `Cn1nc(C(=O)N2CCCc3ccccc32)c2ccccc2c1=O`: 1.7%; for `COc1ccc(NC(=O)C2CCCN(c3c4c(nc5ncnn35)CCC4)C2)cc1` (centres unmarked): -61.6%. With `COc1ccc(-n2cccc2/C=C/[N+](=O)[O-])cc1`, the “hERG current change (%, negative = inhibition) at 10uM” value is reported as -50.4%. To `CN(C)c1ccc(CN(C(=O)c2ccco2)C2CCS(=O)(=O)C2)cc1` (centres unmarked) belongs -10.6%; to `Cc1cc(NC(=O)CSc2nnc(-c3ccccc3)o2)no1`, 2.11%. For the compound `CCC(=O)N1c2ccc(S(=O)(=O)CCC(=O)NCc3cccs3)cc2CC1C` (centres unmarked), the “hERG current change (%, negative = inhibition) at 10uM” value was -9.7%.

In the case of `CC(=O)Nc1ccc(N2C(=O)C3C4CC(=O)C(c5ccccc54)C3C2=O)cc1` (centres unmarked), the “hERG current change (%, negative = inhibition) at 10uM” value worked out at 7.32%. For `COc1cccc(CCC(=O)Nc2cccc(S(=O)(=O)N3CCCC3)c2)c1OC`, the “hERG current change (%, negative = inhibition) at 10uM” value is recorded as -18.1%. To `COc1ccc(N=Cc2c(OC)ccc3ccccc23)cc1` belongs 1.93%.

Turning to `COCCN(C(=S)Nc1ccccc1C)C(C)c1ccco1` (centres unmarked), the “hERG current change (%, negative = inhibition) at 10uM” value is -5.21%. The same measure for `Cc1ccc(C(=O)OCc2nnc(-c3ccc(Br)cc3)o2)cc1`: -11.8%. The same measure for `O=C(Nc1nnc(S(=O)(=O)N2CCCCC2)s1)c1ccc(Cl)cc1`: 3.15%; for `O=C(NCc1ccc(F)cc1)c1ccccc1OCc1ccccc1`: -8.06%; for `CCOC(=O)C1CCCCN1Cc1cccc(C(F)(F)F)c1` (centres unmarked): 6.43%. To `Cc1cccn2c(=O)c3cc(C(=O)NCc4ccco4)c(=N)n(C4CCCCC4)c3nc12` belongs -77.4%. For `O=Cc1cn(CC(=O)Nc2ccc3c(c2)OCO3)c2ccccc12`, the “hERG current change (%, negative = inhibition) at 10uM” value was found to be 15.8%. For `CC(C)(C)N(NC(=O)Nc1ccc(Cl)c(Cl)c1)C(=O)c1ccccc1`, the “hERG current change (%, negative = inhibition) at 10uM” value is 5.65%. To `COc1cccc(NC(=O)CCc2c(C)nn(-c3ccc(N4CCOCC4)nn3)c2C)c1` belongs 6.65%; to `Cc1c(N2C(=O)/C(=C3\C(=O)N(CC(=O)O)c4ccccc43)SC2=S)c(=O)n(-c2ccccc2)n1C`, 10.3%; to `COc1ccc(OCC(O)CN2CCN(c3ccc(Cl)cc3)CC2)cc1` (centres unmarked), -30.7%. To `O=C(Cc1c(Cl)cccc1Cl)N1CCN(S(=O)(=O)c2cccs2)CC1` belongs 10.9%; to `O=C(Nc1ccc2nc3n(c(=O)c2c1)CCCCC3)c1c(F)ccc([N+](=O)[O-])c1F`, -13.9%; to `Cc1ccc(C(=O)c2oc3ccccc3c2NC(=O)c2cc(-c3ccccc3O)n[nH]2)cc1`, 11.8%. To `CCOc1ccc2nc(N=Nc3c(O)[nH]c(=S)[nH]c3=O)sc2c1` belongs 25.1%. As for `COc1ccccc1CCN1CCCC(CN(C)C(=O)c2ccc3nc[nH]c3c2)C1` (centres unmarked), the “hERG current change (%, negative = inhibition) at 10uM” value turned out to be 12.1%. The same measure for `COC(=O)Nc1nnc(-c2ccc(OC)cc2)s1`: -2.67%. To `O=C(CN1CCCCC1)Nc1cc(Cl)ccc1Oc1ccccc1` belongs 12.5%; to `CCOC(=O)C1(S(=O)(=O)c2ccccc2)CCN(Cc2ccccc2)CC1`, -25.3%; to `CCOC(=O)c1ccc(NC(=O)Cn2nnc(-c3ccccc3)n2)cc1`, -10.6%. The same measure for `COc1ccc(C2NCCc3c2[nH]c2ccccc32)cc1COc1ccc(F)cc1.Cl` (centres unmarked): -45.5%; for `C=CCn1c(O)c(/C=C2\C=NN=C2c2ccccc2)sc1=S`: -0.284%.

With `Cc1noc(C)c1COc1cccc(C(=O)NCc2cccc(Cl)c2)c1`, the “hERG current change (%, negative = inhibition) at 10uM” value is recorded as -9.21%. The same measure for `Cc1ccoc1C(=O)NCCNC(=O)c1occc1C`: 4.85%; for `Cc1ccc(NC(=O)CSC2=C(C#N)C(c3ccco3)C3=C(CCCC3=O)N2)cc1` (centres unmarked): 0.131%.

For `CC(C)=CCCC1=CCC(/C=N/NC(N)=O)C(C)C1` (centres unmarked), the “hERG current change (%, negative = inhibition) at 10uM” value is 9%. The same measure for `COC(=O)CSc1nnc(-c2ccoc2C)n1-c1ccc(OC)cc1`: -18.3%.

For the compound `CCOC(=O)Nc1c(C(=O)OC)[nH]c2cc(OC)ccc12`, the “hERG current change (%, negative = inhibition) at 10uM” value is -4.22%. To `CC(C)COc1ccccc1C(=O)NC(CO)C(=O)O` (centres unmarked) belongs 16%; to `CCN(CC)C(=O)c1c(-c2ccccc2)oc2ccc(OC)cc12`, -25%. The same measure for `CCN(C(=O)c1cc2cc(OC)ccc2oc1=O)c1ccccc1`: 7.35%; for `C[C@]1(C(=O)NCCN2CCOCC2)C=C[C@@H](Cc2ccccc2)N1C(=O)c1ccccc1`: 5.92%; for `CC1=NNC(=O)C1CC(=O)N/N=C/C(C)=C/c1ccccc1` (centres unmarked): 15.3%. Take `COc1cc(Cl)cc(C=O)c1OCC(=O)O`: the “hERG current change (%, negative = inhibition) at 10uM” value stood at 18.7%. To `O=C(Nc1nccs1)c1cccc(N2C(=O)c3cccc4c([N+](=O)[O-])ccc(c34)C2=O)c1` belongs -1.83%; to `CCCC(c1nnnn1Cc1ccco1)N1CCN(C2CCCC2)CC1` (centres unmarked), -31%. The same measure for `Nc1ccc2oc(=O)c(-c3ccccc3)cc2c1`: 6.08%. With `COc1ccc(CN2CCCC(C(=O)Nc3cccc(-n4cnnn4)c3)C2)c(C)c1C` (centres unmarked), the “hERG current change (%, negative = inhibition) at 10uM” value is recorded as -62.7%. On to `COc1cc(OC)c(C(=O)N2CCN(c3ccccn3)CC2)cc1OC`, for which the “hERG current change (%, negative = inhibition) at 10uM” value is given as 18.7%. The same measure for `COc1ccc2c(c1)OC13CCN(C)CC1C2C(C(=O)c1ccc(F)cc1)C(=O)N3` (centres unmarked): -34%; for `CCC1(C)Cc2c(sc3nc(SC)[nH]c(=S)c23)CO1` (centres unmarked): 12.6%. The same measure for `COc1cccc(-n2c(SCC(=O)OC(C)C)nnc2-c2cccnc2)c1`: -0.33%. Consider `COc1cccc(S(=O)(=O)Nc2ccc(C(=O)Nc3ccncc3)cc2)c1`, for which the “hERG current change (%, negative = inhibition) at 10uM” value came out at 2.7%. The same measure for `O=Cc1ccc(C(=O)O)cc1`: 14%. The same measure for `Cc1cccc2cc(CN(Cc3ccccc3)C(=S)NCCCN(C)C)c(=O)[nH]c12`: -38%; for `COc1ccc(/C=N/OCC(=O)N2CCCC2)c(OC)c1`: 2.87%. The same measure for `CCC(C)OC(=O)C1=C(C)OC23OC(N)=C(C#N)C12C(=O)c1ccccc13` (centres unmarked): -22.9%; for `CCc1nnc(NC(=O)c2ccc(COc3ccccc3)o2)s1`: -3.1%; for `O=C(O)CCc1ccc(-c2ccc(Cl)cc2)o1`: -11.7%. As to `CCN(CC)C(=O)Oc1cc(=O)n(C)c2ccccc12`, the “hERG current change (%, negative = inhibition) at 10uM” value is given as -2.13%. The same measure for `O=C(CSc1nnc2ccccn12)NNC(=O)c1ccc([N+](=O)[O-])cc1`: -3.39%; for `Cc1onc(-c2c(Cl)cccc2Cl)c1C(=O)N=C(N)N1CC(C)OC(C)C1` (centres unmarked): 13.2%. The same measure for `COc1cc(NC(=O)C2CCN(c3cnccn3)CC2)cc(OC)c1OC`: 19.5%; for `COCCn1c(SCC(=O)Nc2cc(C)on2)nnc1-c1ccccc1`: 17.7%; for `CCOc1cc(C2NC(=O)NC(O)(C(F)(F)F)C2C(=O)c2ccc(Cl)cc2)ccc1O` (centres unmarked): 0.624%. To `O=S(=O)(Nc1ccccc1N1CCCCC1)c1cccs1` belongs 1.55%; to `CCS(=O)(=O)N1CCC(C(=O)c2ccc(Cl)cc2)CC1`, -47.3%; to `CCOc1ccc(S(=O)(=O)N2CCC(C(=O)OCc3cccc(OC)c3OC)CC2)cc1`, -25.1%.
